Laboratory results published in the supplement of paper PMC4604168 (melanoma cell lines).
The list shows a part of the results. Single values are uncertain, as repeats are few or missing.

Key:
Assay in all cases: cell count relative to DMSO control; melanoma cells; higher = more viable cells
Details in all cases: library dose: standard library concentration; 72 h
[1] = system: G361
[2] = system: IPC-298
[3] = system: IST-MEL1
[4] = system: LB2518-MEL
[5] = system: LOXIMVI
[6] = system: MEL-HO
[7] = system: MZ2-MEL
[8] = system: MeWo
[9] = system: RPMI7951
[10] = system: RVH-421
[11] = system: SkMel28
[12] = system: SkMel2
[13] = system: SkMel30
[14] = system: SkMel5
[15] = system: UACC257
[16] = system: UACC62
[17] = system: WM115
[18] = system: WM1716
[19] = system: WM1745
[20] = system: WM3526
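Also: cells treated in 1,536-well plates, then fixed and DAPI-stained, with nuclei counted from automated high-throughput microscope images.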

Structure (SMILES) | cell count [1] [%] | cell count [2] [%] | cell count [3] [%] | cell count [4] [%] | cell count [5] [%] | cell count [6] [%] | cell count [7] [%] | cell count [8] [%] | cell count [9] [%] | cell count [10] [%] | cell count [11] [%] | cell count [12] [%] | cell count [13] [%] | cell count [14] [%] | cell count [15] [%] | cell count [16] [%] | cell count [17] [%] | cell count [18] [%] | cell count [19] [%] | cell count [20] [%]
Cn1c(Nc2ccc(C(F)(F)F)cc2)nc2cc(Oc3ccnc(-c4ncc(C(F)(F)F)[nH]4)c3)ccc21 + N#Cc1c(O)c2c(-c3ccc(-c4ccccc4O)cc3)csc2[nH]c1=O [A769662] (first compound 0.4 µM, partner dose 10 µM) | 27.8 | 47.1 | 75.2 | 29.7 | 88.8 | 59.4 | 57.6 | 62.4 | 65.7 | 19.7 | 47.7 | 66.7 | 74.2 | 45.1 | 83.1 | 53.6 | 49.9 | 69.1 | 59.2 | 45
COCC[n+]1c2c(n(Cc3cnccn3)c1C)C(=O)c1ccccc1C2=O + O=C(O)c1ccc(-c2c[nH]c3ncc(-c4ccccc4)cc23)cc1C1CCCC1 [GSK650394] (first compound 0.002 µM, partner dose 0.8 µM) | 47.9 | 55.1 | 55.6 | 28.1 | 69.2 | 75.2 | 29.1 | 60.9 | 75.9 | 118 | 69.3 | 49.8 | 83.5 | 50.7 | 25 | 71 | 73.8 | 84.7 | 115 | 68.4
Clc1ccc(Nc2nnc(Cc3ccncc3)c3ccccc23)cc1 [vatalanib] + CN(NC(=O)CC(=O)NN(C)C(=S)c1ccccc1)C(=S)c1ccccc1 [STA4783] (first compound 10 µM, partner dose 0.03 µM) | 43.4 | 71.4 | 81.3 | 70 | 79.5 | 49.4 | 91.1 | 23.8 | 84.1 | 192 | 62 | 76.8 | 72.4 | 66.6 | 88.7 | 62.2 | 22.4 | 5.59 | 49.5 | 74.7
COCC[n+]1c2c(n(Cc3cnccn3)c1C)C(=O)c1ccccc1C2=O + C[C@]1(c2nc3c(C(N)=O)cccc3[nH]2)CCCN1 [Veliparib] (first compound 0.002 µM, partner dose 7 µM) | 88.9 | 61 | 40.2 | 33.8 | 41.7 | 91.6 | 24.5 | 70.9 | 45.6 | 76.7 | 47.7 | 36.8 | 78.4 | 59.7 | 25.5 | 50.5 | 50 | 67.9 | 85.2 | 49.1
Cn1c(Nc2ccc(C(F)(F)F)cc2)nc2cc(Oc3ccnc(-c4ncc(C(F)(F)F)[nH]4)c3)ccc21 + COc1cc2c(Oc3ccc4[nH]c(C)cc4c3F)ncnc2cc1OCCCN1CCCC1 [cediranib] (first compound 0.4 µM, partner dose 2 µM) | 27.9 | 48.1 | 79.7 | 33.9 | 33.7 | 69.5 | 67.9 | 70.9 | 38.9 | 58.6 | 48.3 | 40.6 | 54.9 | 34.2 | 77.8 | 46.6 | 37.1 | 66.9 | 50.1 | 43.5
O=C(CCCCCCC(=O)Nc1ccccc1)NO [vorinostat] + COc1cc(Nc2ncc(F)c(Nc3ccc4c(n3)NC(=O)C(C)(C)O4)n2)cc(OC)c1OC [Tamatinib] (first compound 0.4 µM, partner dose 2 µM) | 54.6 | 74.1 | 66.7 | 79.1 | 24 | 74.3 | 73.2 | 68.9 | 15 | 69.1 | 68.6 | 54 | 90.8 | 43.9 | 62.7 | 66 | 73.1 | 73.4 | 36.6 | 68.5
OCc1c[nH]c2ccccc12 [Indole-3-carbinol] + NC(=O)Nc1cc(-c2cccc(F)c2)sc1C(=O)N[C@H]1CCCNC1 [AZD7762] (first compound 4 µM, partner dose 0.1 µM) | 87.4 | 94.7 | 89.9 | 79.6 | 92.3 | 97.2 | 105 | 72.9 | 53.3 | 117 | 52.4 | 91.5 | 104 | 64.5 | 101 | 72 | 74 | 86.9 | 72.4 | 65.9
Nc1cccc2c1CN(C1CCC(=O)NC1=O)C2=O (stereo not given) [lenalidomide] + O=C(O)c1ccc(-c2c[nH]c3ncc(-c4ccccc4)cc23)cc1C1CCCC1 [GSK650394] (first compound 5 µM, partner dose 0.8 µM) | 54.6 | 79.5 | 66.7 | 81.1 | 66.7 | 71.9 | 84 | 92.2 | 73.2 | 67.3 | 53.4 | 70.4 | 85 | 91.6 | 77.5 | 86 | 101 | 93.9 | 88.6 | 83.7
C#Cc1cccc(Nc2ncnc3cc(OCCOC)c(OCCOC)cc23)c1 [erlotinib] + COc1ccc2c(c1)CCC1C2CCC2(C)C(NCCCCCCN3C(=O)C=CC3=O)CCC12 [U73122] (first compound 4 µM, partner dose 2 µM) | 40.3 | 62.1 | 75.1 | 61.3 | 39.4 | 67.9 | 72.8 | 49.3 | 16.9 | 65.2 | 45.5 | 82.5 | 75.6 | 61 | 79.4 | 42.7 | 74.2 | 75.4 | 40.7 | 68
